{"source": "the supplement of paper PMC11417369", "note": "± gives the standard deviation of the averaged measurements. This is one part of the list.", "data": [{"tested_on": "PfAP2-EXP AP2 domain (GST-tagged)", "assay": "gcPBM binding intensity (ln(normalized median fluorescence intensity)); higher = stronger DNA binding", "method_in_brief": "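Binding of GST-tagged P. falciparum DNA-binding domains, expressed in E. coli and used at about 25 μg on average, was carried out for 1 h in 1× PBS containing 1% milk, 0.2 mg/ml BSA, 0.5% salmon testes DNA and 0.03% Triton X-100. The target was an Agilent 4 × 180k array of primer-extended double-stranded 36-bp intergenic genomic probes plus negative controls, read with Alexa488 anti-GST antibody at 488 nm. Binding intensity is the highest Masliner-normalised natural-log median intensity across replicate spots of either probe orientation.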", "values": [{"sequence": "TATTTTGAGAATAAATGTACGAATTTTATATTTAAA [XGTACX_site1336]", "gcPBM binding intensity (ln)": "8.15 ± 0.32"}, {"sequence": "ACCTGTTCATATGATCGTACACGTCAGTTTATATGA [XGTACX_site3869]", "gcPBM binding intensity (ln)": "8.85 ± 0.34"}, {"sequence": "GAGTATTCAAGTATTAGTACATATTATATAATAAAT [XGTACX_site7630]", "gcPBM binding intensity (ln)": "8.46 ± 0.31"}, {"sequence": "AATCCTTACGGACACACACACACGAATAAATAAAAA [CACACA_site4422]", "gcPBM binding intensity (ln)": "8.74 ± 0.55"}, {"sequence": "TAAAATAAAAATTAAAGTACATATGTATATATATAT [XGTACX_site3984]", "gcPBM binding intensity (ln)": "9.86 ± 0.19"}, {"sequence": "TACAAAATGGGGAACACACACATATATAAATAAATA [CACACA_site7751]", "gcPBM binding intensity (ln)": "8.9 ± 0.4"}, {"sequence": "ATAATTATTTTAGAAACACACAAATTAGAAAAAACA [CACACA_site3636]", "gcPBM binding intensity (ln)": "8.5 ± 0.26"}, {"sequence": "ACTGTAAAAGGATTTACACACATATTTACATTTACA [CACACA_site519]", "gcPBM binding intensity (ln)": "8.62 ± 0.39"}, {"sequence": "TACCAATGCATAACGGTGCAAAAAAATAAGGAATAA", "gcPBM binding intensity (ln)": "9.055 ± 0.007"}, {"sequence": "ATGCATATAACTACGTGTACAAATATACACAAATAC [XGTACX_site8811]", "gcPBM binding intensity (ln)": "8.91 ± 0.3"}, {"sequence": "TTTCCTTATTAAAACACACAAATACATTATTTAATC [CACACA_site7080]", "gcPBM binding intensity (ln)": "8.32 ± 0.45"}, {"sequence": "ATATATATATTTGTATGTACATATATATATTCGTAT [XGTACX_site1640]", "gcPBM binding intensity (ln)": "9.23 ± 0.29"}, {"sequence": "ACCCATAAAAAGGATACACACACACCCACCCATATA [CACACA_site8205]", "gcPBM binding intensity (ln)": "9 ± 0.58"}, {"sequence": "ACAAGTCAGGCAAAAACATGCATTATTTGAACATTA [TGCATGCA_site864]", "gcPBM binding intensity (ln)": "8.6 ± 0.55"}, {"sequence": "AAAAAAAAAAAAGGAGGTACACAATTTTATATATGC [XGTACX_site5296]", "gcPBM binding intensity (ln)": "8.6 ± 0.4"}, {"sequence": "ACATTTTTTTCATATCGTACATATTATAATATTTTC [XGTACX_site6524]", "gcPBM binding intensity (ln)": "8.9 ± 0.39"}, {"sequence": "GAGCATTACCCATATACACACATATATATAAACCTA [CACACA_site2737]", "gcPBM binding intensity (ln)": "8.72 ± 0.36"}, {"sequence": "TTTTGTTATTTTTTAGTGCATATAAAGGTTGTTAAG", "gcPBM binding intensity (ln)": "8.78 ± 0.14"}, {"sequence": "TTTTGCAATAATGTTGCACACTAAATAGTCATCTAT [CACACA_site4304]", "gcPBM binding intensity (ln)": "8.37 ± 0.31"}, {"sequence": "TAAAACAACAAAGAAAATGAAAAAGTAAAAACATAT [CACACA_negctrl_site1049]", "gcPBM binding intensity (ln)": "8.94 ± 0.47"}, {"sequence": "GTACGATAAAAAATTGGACAAAAAAAAAAAAAAAAT [XGTACX_negctrl_site158]", "gcPBM binding intensity (ln)": "8.45 ± 0.5"}, {"sequence": "ATTTCATAAATTAAACGTACATAATACACACACATG [XGTACX_site4155]", "gcPBM binding intensity (ln)": "9.09 ± 0.35"}, {"sequence": "AAAAACTAATCTTTAACATGCAACCGTTTATACATA [TGCATGCA_site363]", "gcPBM binding intensity (ln)": "8.51 ± 0.4"}, {"sequence": "TGAGTTACATACTAATGTACACAACAAAAAAAAAAA [XGTACX_site2390]", "gcPBM binding intensity (ln)": "8.56 ± 0.4"}, {"sequence": "AAAGGTTTATATGATACACACATAAGTGATCAGGTT [CACACA_site190]", "gcPBM binding intensity (ln)": "8.35 ± 0.45"}]}]}
